Test results from PubChem BioAssay AID1963576 (National Center for Advancing Translational Sciences (NCATS), 2024).
In all, about 46,000 compounds went through this assay and about 60 (0.1%) were called active. Not shown: some 3% with an inconclusive outcome. Calls follow the shape of the dose curve; as a rule, active = well fitted inhibition curve with a large enough effect; inconclusive = small, poorly fitted or top-dose-only effect; inactive = no such curve, though single readings can be large or run the other way. Some of the results follow.

experiment: Primary qHTS assay for Inhibitors of ovarian cancer metastasis using an organotypic tumor microenvironment (TME) model.; also: nearly all actives have a fitted effect of over 65% in size;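 as to activity change, negative = inhibition: plate controls were DMSO wells for no effect and tomatine positive control wells for full effect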; details: SKOV3ip1-GFP adhesion/invasion on 3D omental model, fluorescence; series mostly up to 45.8 µM; activity change, negative = inhibition: at the top concentration
Method in brief: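 Adhesion/invasion was scored as fixed GFP-labeled SKOV3ip1 cell counts (488/509 nm), normalized to DMSO and tomatine controls. Cancer cells in serum-free medium, with four compound doses (0.36-46 umol/L), sat 2 hr at RT then 16 hr at 37 C on a 48 hr fibroblast/mesothelial/ECM culture.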

outcome, inactive:
COc1cc(NC(=O)Cn2nc(C(F)(F)F)c3c2CCCC3)cc(OC)c1OC
CCOc1ccccc1CNC(=O)CCCn1nc(C)c2sc3ccccc3c2c1=O
Cc1cccc(CSc2nc3ccncc3n2Cc2ccc(C(=O)O)cc2)c1
CCC1CN(C(=O)N2CCC(C(=O)NCCCc3ccccc3)CC2)c2ccccc2O1 (stereo unspecified)
COc1ccc(CNC(=O)c2ccc(CS(=O)(=O)c3ccc(OC)cc3)o2)cc1
CCOC(=O)c1c(C)[nH]c(CCC(=O)Nc2ccccc2OCC)c1C
CC(=O)Nc1ccccc1OCc1cc(=O)n2c(C)csc2n1
Cc1ccc(-c2nc(C)c(CCNC(=O)C(=O)Nc3ccc(C)c(Cl)c3)s2)cc1
COc1cccc(-c2nn(C)c3sc(C(=O)NCc4ccc(C)cc4)cc23)c1
CCC(CC)C(=O)Nc1cccc(-c2nc3ncccn3c2C)c1
CN1CCN(CCNC(=O)c2cnn(-c3cccc(Cl)c3)c2C2CCN(C(=O)OC(C)(C)C)CC2)CC1
Cc1cc(=O)n2nc(N3CCC(C(=O)NCc4ccccc4F)CC3)sc2n1
COc1ccc(CN(C)c2ccc(-c3nc(C)no3)cc2[N+](=O)[O-])cc1
COc1ccc(CNc2nc3c(-c4ccc(C)cc4)nnn3c3ccccc23)cc1
COc1ccc(-n2nc(C(=O)NCCCOC(C)C)c3c4ccccc4n(C)c3c2=O)cc1
O=C(Nc1c(Cl)cccc1Cl)c1cccc2c1C(=O)N(C1CCCCC1)C2
CCCS(=O)(=O)NCCc1csc2nc(-c3ccc(C)cc3)nn12
Cc1ccc(NC(=O)c2sc3nc4n(c(=O)c3c2C)CCCCC4)c(Br)c1
Cc1ccc(-n2ncc(C(=O)N3CCN(C4CCCCC4)CC3)c2C2CCN(C(=O)OC(C)(C)C)CC2)cc1C
CN(C(=O)Cn1c(=O)n(CCC(=O)NCc2ccc3c(c2)OCO3)c(=O)c2sccc21)c1ccccc1
O=C(Cn1cnc(S(=O)(=O)N2CCCC2)c1)Nc1cccc(F)c1
Oc1c(C(c2ccccc2F)N2CCC3(CC2)OCCO3)sc2nc(-c3ccco3)nn12 (stereo unspecified)
Cc1cccc(N2CCN(C(=O)CCCn3c(=O)[nH]c4ccsc4c3=O)CC2)c1C
Cc1ccc(NC(=O)Cn2c(=O)n(CCCC(=O)NCc3ccc4c(c3)OCO4)c(=O)c3ccccc32)cc1
CCN(c1ccc(Cl)cc1)S(=O)(=O)c1nnc(NC(=O)c2ccco2)s1
Cc1ccc(C)c(N2CCN(C(=O)C3CCN(S(=O)(=O)c4ccc5[nH]c(=O)oc5c4)CC3)CC2)c1
Cn1c(=O)oc2cc(S(=O)(=O)N3CCCC(C(=O)N4CCN(c5ccc(Cl)cc5)CC4)C3)ccc21 (stereo unspecified)
Cc1ccc(C)c(NC(=O)CCS(=O)(=O)c2cccc3nsnc23)c1
Cc1cc(C)cc(NC(=O)C(=O)NCC(c2ccc3c(c2)OCO3)N2CCOCC2)c1 (stereo unspecified)
CCOc1ccc(N2CC(C)Cn3c2nc2c3c(=O)n(CC(=O)O)c(=O)n2C)cc1 (stereo unspecified)
Cc1nc2nc(SCC(=O)Nc3cccc(Cl)c3)nn2c(C)c1Cc1ccccc1

Activity change, negative = inhibition, inactive:
CC1=C(C(=O)Nc2cccc(Cl)c2)C2(CCCCCC2)OC1=O -11.5%
Cc1ccc(OCc2ccc(-c3nc(C#N)c(N4CCN(c5cccc(Cl)c5)CC4)o3)o2)cc1 -15.1%
O=C(Nc1ccc(-c2cn3cccnc3n2)cc1)c1ccccc1F -2.67%
CCCC12CN3CC(C)(CN(C1)C3c1cn(CC)c3ccccc13)C2=O (stereo unspecified) 2.76%
CN(C)c1ccc(CNC(=O)Cn2c(=O)oc3cc(S(=O)(=O)NCc4ccccc4)ccc32)cc1 3.93%
COc1ccc(C(=O)Nc2cc3cc(Cl)ccc3oc2=O)cc1OC -16.2%
Cc1nn(CCC(=O)N2CCN(c3ccccc3F)CC2)c(C)c1S(=O)(=O)N1CCCC1 1.22%
O=C(NCc1ccccc1Cl)c1ccc2nc(Cc3ccccc3)oc2c1 7.65%
CC(=O)N1CCCc2cc(S(=O)(=O)N3CCC(C(=O)NCc4ccccc4Cl)CC3)ccc21 6.17%
CCC(=O)N1c2ccccc2CC1C(=O)NCCN1CCN(c2cccc(Cl)c2)CC1 (stereo unspecified) 3.62%
COCCCNC(=O)CSc1nc(-c2ccc(OC)cc2)[nH]c1-c1ccc(OC)cc1 5.6%
COc1ccc2oc(=O)cc(CN3CCN(c4ccccc4OC)CC3)c2c1 2.27%
CCC1(C)CC(=O)NC1=O (stereo unspecified) 20.4%
CCOC(=O)c1cc(S(=O)(=O)NCc2ccc(F)cc2)[nH]n1 5.33%
CC(C)(O)CC(=O)NCCn1ccc2ncnc(Nc3ccc(Oc4cccc(C(F)(F)F)c4)c(Cl)c3)c21 4.95%
CCN(CC)C(=O)c1sc2c(c1C)c(=O)n(-c1ccc(OC)cc1OC)c(=O)n2Cc1cc(C)ccc1C 3.95%
CC(=O)N1c2ccc(S(=O)(=O)NCc3ccc(Cl)cc3)cc2CC1C (stereo unspecified) -5.88%
CCc1ccc(CNC(=O)Cn2nc(C)c3c(C)n(-c4ccc(C)cc4)nc3c2=O)cc1 9.36%
CCN(CCCNC(=O)CSc1cc(=O)n(C)c2cc(Cl)ccc12)c1ccccc1 10.8%
CCN(CC)CCCNC(=O)CSc1nc2nc(C)c(Cc3ccccc3C)c(C)n2n1 -10.5%
COc1ccc(NC(=O)Cn2nc(SC)c(S(=O)(=O)c3ccc(C)cc3)c2N)cc1OC 0.319%
COCCN(Cc1ccco1)C(=O)c1cc2c(Cl)nc3ccc(C)cc3c2s1 -5.37%
CCOc1ccc(NC(=O)CC2C(=O)N(c3ccc(F)cc3)C(=O)N2CCc2sccc2C)cc1 (stereo unspecified) 0.94%
CCC(=O)N1CCc2cc(Br)cc(S(=O)(=O)CCC(=O)N(C)c3cccc(C)c3)c21 -1.49%
COc1ccc(C2C(=O)N(C3CCC(C)CC3)CC(=O)N2C2CCCCC2)cc1OC (stereo unspecified) -1.77%
Fc1ccccc1N1CCN(c2ncnc3c2nc2n3CCCCC2)CC1 9.54%
O=C(O)c1ccc2oc(=O)n(Cc3ccccc3)c2c1 -3.95%
CCOC(=O)c1cc2c(=O)n3ccccc3nc2n(CCCOC)c1=NC(=O)c1c(-c2ccccc2Cl)noc1C 4.08%
Cc1nc2nc(C)c(NS(=O)(=O)c3ccc(F)cc3)c(=O)n2[nH]1 -6.2%
CCOc1ccc(NC(=O)C2CCCN(c3nn4cc(-c5ccc(OC)cc5)nc4s3)C2)cc1 (stereo unspecified) 8.7%
CCCCN(C(=O)Nc1ccc(Cl)cc1)C1CCN(C(C)=O)CC1 -5.32%
CC(=O)c1cccc(NC(=O)C2=CC(c3ccc(F)cc3)=NS(=O)(=O)N2C)c1 -2.93%
CCCCCCc1c(C)c2c(cc(C)c3c(C)c(C)oc32)oc1=O -6.52%
O=C1CC(c2nc3ccccc3n2CCC2CCCCC2)CN1c1ccccc1Cl (stereo unspecified) 6.45%
Cc1ccc2onc(CC(=O)N3CCN(c4ccc(Cl)cc4)CC3)c2c1 -6.21%
COc1ccc(OC)c(CNC(=O)c2ccc(Sc3ccc(Cl)cc3)c(NC(C)=O)c2)c1 -2.9%
O=C(NCCc1ccccc1)c1ccc(Cn2c(=O)c3cccn3c3cccnc32)cc1 9.04%
COC(=O)c1cc2oc3ccccc3c2n1CC(=O)Nc1ccc(OC)c(OC)c1 6.46%
O=C(NC1CCCCC1)c1ccc(CSc2nc3ccncc3n2Cc2ccccc2)cc1 5.13%
O=C(NC(Cc1cc(=O)[nH]c2ccccc12)C(=O)O)c1ccc(Cl)cc1 (stereo unspecified) -0.551%
CCNS(=O)(=O)c1cc(-c2nnc(Nc3cccc(C(F)(F)F)c3)c3ccccc23)ccc1C 7.22%
Cc1cc2c(cc1S(=O)(=O)N(CCO)Cc1ccccc1)OCC(=O)N2 -3.42%
COc1ccc(NC(=O)CN2C(=O)CSc3ccc(S(=O)(=O)N(C)C)cc32)cc1OC 16.1%
CCOc1cc(C2C(C(=O)Nc3ccccc3)=C(C)Nc3ncnn32)cc(Br)c1O (stereo unspecified) -6.33%
CN(C)c1ccc(Nc2nc(N)n(C(=O)c3c(F)cccc3F)n2)cc1 18%
CCc1ccc2nc(N3CCN(C(=O)c4ccccc4)CC3)sc2c1 -13.8%
CCc1cccc(CC)c1N(COC)C(=O)Cn1c(CC)nc2ccccc21 -3.66%
Cc1ccc(NC(=O)Cn2c(CCC(=O)O)ccc2-c2cccs2)cc1Cl -2.02%
CCOc1ccc(C2C(=O)N(C3CCCCCC3)CC(=O)N2CCC2=CCCCC2)cc1OC (stereo unspecified) 5.12%
Cc1ccc(NC(=O)CN(CCc2ccccc2)S(=O)(=O)c2ccccc2)c(C)c1 9.53%
CCOc1ccc(CNC(=O)Cn2nc(C)n3cccc3c2=O)cc1 -11.9%
CCc1ccc(-n2nc3ccc(NC(=O)c4cc(Cl)c(OC)c(Cl)c4)cc3n2)cc1 2.83%
CCCCn1cc(S(=O)(=O)c2ccc(OCC)cc2)c(=O)c2cc(OC)c(OC)cc21 16.2%
CN(C(=O)CSc1nc2ccc(NC(=O)c3ccccc3F)cc2s1)c1ccccc1 -10.1%
COC(=O)c1cccc(NC(=O)N(C)CCc2c(C)nn(C)c2C)c1 -1.39%
Cc1ccc(CNC(=O)c2cccc(N3CCCS3(=O)=O)c2)cc1 1.75%
COc1cc(N2C(=O)CSC23C(=O)N(C)c2ccccc23)cc(OC)c1OC (stereo unspecified) -10.8%
COc1ccc(CN2CCc3nc(Nc4ccccc4)ncc3C2)c(OC)c1OC -5.54%
Cc1ccc(CNC(=O)Cn2c(=O)n(Cc3ccccc3)c(=O)c3c2c2cc(C)ccc2n3C)cc1 73.8%
CC(C)c1ccc(NC(=O)c2cn(C3CCCCC3)c(=O)c3c2c2ccccc2n3C)cc1 7.92%
COc1ccc(Nc2nc3c(S(=O)(=O)c4ccccc4)nnn3c3ccc(Cl)cc23)c(OC)c1 1.74%
Fc1ccc(-c2cc(-c3nc(-c4ccccc4)no3)[nH]n2)cc1 -1.14%
Cc1ccc2c(c1)c1c(c(=O)n(-c3cccc(Cl)c3)c(=O)n1CC(=O)c1ccc(Cl)cc1)n2C -3.76%
CC(C)Cn1cc(NC(=O)NCc2ccccc2)c2ccccc2c1=O 14.5%
CCCCn1c(=N)c(S(=O)(=O)c2ccccc2)cc2c(=O)n3cccc(C)c3nc21 2.42%
